# Measurements published in the supplement of paper PMC7826260.
# The other results are listed elsewhere or left out. The data describe in vitro nicking of single-stranded DNA by Rep domains for 1 h at 37 °C with 3 µM enzyme; only the middle of the 90-letter strands is printed. Uncut reads are compared with the no-enzyme pool on a log2 scale; uncut sequences lie near 0, cut ones below; no hit call is given. The scaling is to total reads, so uncut sequences can rise above 0 when many others are cut.
# Tests used:
# Test in all cases: uncleaved DNA left, log2 of reads against the no-enzyme library (log2 ratio); higher = less cleavage (more negative = more Rep cleavage of the k-mer); sequences stand for … in CTCGTCCG…ACCGGAGA
# [1] = tested on: T1, Rep nickase domain of Muscovy duck circovirus
# T1 sequence (residues 1-111, tag not shown): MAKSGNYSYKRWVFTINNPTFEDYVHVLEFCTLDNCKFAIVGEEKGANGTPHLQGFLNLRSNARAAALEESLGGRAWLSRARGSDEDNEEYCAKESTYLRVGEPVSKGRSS
# Method: (§1)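 A pool of 90-nt single-stranded DNAs with seven random bases just before the constant AC of the nick site (name = the seven bases) was cut by 3 µM recombinant His6-SUMO-tagged Rep nickase domain (300 nM DNA, 50 mM HEPES pH 8.0, 50 mM NaCl, 1 mM MnCl2, 1 h, 37 °C, three replicates). Uncut DNA was amplified and sequenced.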
# [2] = tested on: T2, Rep nickase domain of banana bunchy top virus
# T2 sequence (residues 1-94, tag not shown): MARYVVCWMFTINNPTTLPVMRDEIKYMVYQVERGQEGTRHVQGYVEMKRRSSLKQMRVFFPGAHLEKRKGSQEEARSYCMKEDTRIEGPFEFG
# Method: as §1
# [3] = tested on: T3, Rep nickase domain of cabbage leaf curl virus
# T3 sequence (residues 1-116, tag not shown): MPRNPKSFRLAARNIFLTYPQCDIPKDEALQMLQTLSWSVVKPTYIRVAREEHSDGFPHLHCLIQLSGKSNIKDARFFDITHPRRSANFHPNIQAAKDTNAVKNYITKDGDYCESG
# Method: as §1
# [4] = tested on: T4, Rep nickase domain of chickpea chlorotic dwarf virus
# T4 sequence (residues 1-124, tag not shown): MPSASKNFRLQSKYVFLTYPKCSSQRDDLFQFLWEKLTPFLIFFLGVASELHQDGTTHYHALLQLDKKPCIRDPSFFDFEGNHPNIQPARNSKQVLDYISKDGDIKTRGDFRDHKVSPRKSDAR
# Method: as §1
# [5] = tested on: T5, Rep nickase domain of faba bean necrotic yellows virus
# T5 sequence (residues 1-98, tag not shown): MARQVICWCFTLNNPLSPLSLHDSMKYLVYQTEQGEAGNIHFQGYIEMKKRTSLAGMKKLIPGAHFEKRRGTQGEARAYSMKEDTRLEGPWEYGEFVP
# Method: as §1
# [6] = tested on: T6, Rep nickase domain of maize striate mosaic virus
# T6 sequence (residues 1-117, tag not shown): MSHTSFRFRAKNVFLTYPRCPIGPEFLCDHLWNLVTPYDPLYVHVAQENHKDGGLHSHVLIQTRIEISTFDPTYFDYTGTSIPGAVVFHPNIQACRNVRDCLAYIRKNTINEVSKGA
# Method: as §1
# [7] = tested on: T7, Rep nickase domain of porcine circovirus 2
# T7 sequence (residues 2-116, tag not shown): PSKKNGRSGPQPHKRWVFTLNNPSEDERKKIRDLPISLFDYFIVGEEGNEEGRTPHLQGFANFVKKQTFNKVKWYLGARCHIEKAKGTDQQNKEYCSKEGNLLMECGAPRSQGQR
# Method: as §1
# [8] = tested on: T8, Rep nickase domain of tomato yellow leaf curl virus
# T8 sequence (residues 1-136, tag not shown): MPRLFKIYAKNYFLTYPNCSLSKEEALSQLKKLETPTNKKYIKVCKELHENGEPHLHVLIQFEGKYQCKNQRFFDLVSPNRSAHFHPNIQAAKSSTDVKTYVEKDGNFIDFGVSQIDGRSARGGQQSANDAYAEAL
# Method: as §1
# [9] = tested on: T9, Rep nickase domain of wheat dwarf virus
# T9 sequence (residues 1-137, tag not shown): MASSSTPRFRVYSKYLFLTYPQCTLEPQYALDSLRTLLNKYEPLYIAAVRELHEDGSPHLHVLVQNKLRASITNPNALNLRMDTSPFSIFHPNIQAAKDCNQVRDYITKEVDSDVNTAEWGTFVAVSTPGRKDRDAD
# Method: as §1
Sequence,uncleaved DNA left (log2) [1],uncleaved DNA left (log2) [2],uncleaved DNA left (log2) [3],uncleaved DNA left (log2) [4],uncleaved DNA left (log2) [5],uncleaved DNA left (log2) [6],uncleaved DNA left (log2) [7],uncleaved DNA left (log2) [8],uncleaved DNA left (log2) [9]
GGCACGG,-0.00366,0.129,0.393,1.38,-0.109,2.05,0.082,-0.049,0.103
TGGATGA,0.0903,-0.0392,0.495,1.17,-0.0503,1.36,0.0534,0.01,0.133
GACGGCT,-0.0791,-0.172,0.0267,0.00546,-0.0349,0.182,-0.0686,-0.114,-0.112
ACTAATT,0.0298,-0.0329,-0.0792,-2.4,-0.0047,-0.669,-2.11,0.0405,0.0669
GATAGTG,0.104,-0.0186,-0.448,-0.429,0.119,-1.04,0.176,0.129,-0.0418
ATCAGGA,0.0846,0.0547,0.0643,0.458,0.0613,-0.239,0.206,-0.0285,-0.0791
ATCCTAA,0.142,0.0542,-0.0205,-0.239,0.0569,-0.711,0.0242,0.18,-0.00669
CGTTGTA,-0.107,-0.0913,-0.148,-0.424,0.0348,-0.769,-0.158,0.152,-0.0258
AATACCA,-0.0339,0.0467,-0.0504,-1.91,-0.0717,0.0646,-0.332,-0.0271,0.0644
CTGGTCA,-0.048,-0.0119,0.0775,-0.398,-0.087,-0.288,-0.0203,0.1,-0.0592
GTCTCGG,0.0383,0.121,0.428,1.18,-0.0402,1.91,0.113,-0.0296,-0.0359
AATTGCT,-3.26,-1.55,-0.852,-1.19,0.0862,-0.691,-3.58,0.13,-0.0615
GTTTTTC,-0.0451,-0.0313,0.215,0.801,0.0162,1.57,-0.0149,0.0116,-0.00644
AGGATGG,0.107,-0.144,-0.07,0.122,-0.0879,-0.28,0.0951,-0.141,-0.0778
CTATAGC,-0.0165,0.0476,-0.453,-0.641,0.0778,-1.07,0.192,-0.053,-0.0699
ATACTCG,-0.0215,0.0642,-0.861,-0.584,0.198,-1.02,0.161,-0.0082,0.0129
TCCACGT,0.0261,0.106,0.24,-0.0444,0.11,0.0722,0.0796,0.0111,-0.0172
ATGAAAT,-0.00124,-0.000755,0.0648,0.235,0.0035,0.27,-0.236,-0.0264,0.0468
GCTGCGG,-0.154,-0.219,-0.451,-0.46,-0.156,-0.577,-0.0723,-0.241,-0.197
TATGGCG,-0.0467,0.0356,-0.509,0.779,-0.0313,-0.132,0.0284,0.0308,-0.181
ACCTACT,-3.07,-0.347,-0.799,-2.74,-0.0961,-0.742,-3.21,0.00805,-0.136
TGTAGCT,0.00412,0.0629,-0.124,-0.839,0.0111,-0.681,-0.119,0.0145,-0.0962

Sequence,uncleaved DNA left (log2) [1],uncleaved DNA left (log2) [2],uncleaved DNA left (log2) [3],uncleaved DNA left (log2) [4],uncleaved DNA left (log2) [5],uncleaved DNA left (log2) [6],uncleaved DNA left (log2) [7],uncleaved DNA left (log2) [8],uncleaved DNA left (log2) [9]
GTTGAAG,0.00738,0.127,-0.029,0.196,0.0118,-0.112,0.141,0.0546,-0.0531
ATCACCG,0.0567,-0.0734,-0.87,-0.174,0.0195,-0.931,0.132,-0.0511,-0.0838
TCTTCGT,-0.188,-0.176,-0.381,-1.02,-0.136,-1.1,-0.297,-0.0779,-0.153
CGCTGCA,-0.0458,-0.0063,-0.259,-0.326,0.0902,-0.545,0.0212,0.0604,0.00608
GTCTCCC,-0.0714,-0.143,0.245,0.546,-0.0433,1.54,-0.506,-0.156,0.0327
CCACGGT,0.0378,-0.0755,0.122,-0.134,0.0308,0.641,-0.0289,-0.154,-0.0521
CAGTTTT,-3.38,-3.48,-1.63,-3.15,-3.12,-0.539,-4.46,0.0594,-0.387
AAAAGAA,0.0275,-0.0348,-0.0281,-0.425,0.0165,-0.54,0.116,-0.121,0.0874
GAATGCT,-2.95,-0.299,-3.07,-2.41,-0.105,-2.08,-3.22,-0.151,-2.98
AAGTTAT,-0.269,-0.462,0.112,0.486,-0.264,1.31,-3.53,-0.19,-0.00829
ATCGTGT,-0.034,-0.0631,-0.273,-0.64,-0.0345,-0.968,-0.0944,-0.0951,-0.129
ACACCGG,-0.0506,-0.0133,-0.21,-0.0252,0.0183,-0.49,0.0867,-0.0927,-0.176
GATGATA,0.148,0.0949,0.321,-0.21,0.0916,1.25,0.0767,0.0865,0.133
GACTAGA,0.092,0.0726,0.141,0.485,0.0819,0.193,-0.177,0.0658,0.0709
CCGCCAG,0.0242,0.146,-0.357,-0.361,0.185,-0.559,0.175,0.077,-0.0764
GCAGTTA,0.0648,-0.112,-0.0768,-0.466,-0.0258,-0.0665,-0.0994,0.0856,-0.0288
TTGAGGC,0.0561,-0.072,0.059,0.0989,-0.0482,-0.475,0.0408,-0.048,-0.0331
CCTAGGA,-0.0505,-0.0314,0.161,0.426,-0.000787,-0.29,0.0483,0.0265,-0.071
GTTCTAA,0.118,0.135,0.355,0.996,0.148,1.92,0.212,0.199,0.195
TGGGCCC,0.0501,0.129,0.719,1.52,0.0861,1.9,0.279,0.197,0.0794
AAGGTAC,0.00856,0.0396,-0.066,0.448,0.0802,-0.159,0.145,-0.199,0.0538
ATGATAC,-0.0367,-0.0302,-0.185,-0.585,0.0362,-0.807,-0.0586,-0.0389,-0.099

Sequence,uncleaved DNA left (log2) [1],uncleaved DNA left (log2) [2],uncleaved DNA left (log2) [3],uncleaved DNA left (log2) [4],uncleaved DNA left (log2) [5],uncleaved DNA left (log2) [6],uncleaved DNA left (log2) [7],uncleaved DNA left (log2) [8],uncleaved DNA left (log2) [9]
CTATGTA,-0.395,-0.000402,-0.257,-1.3,0.0451,-0.774,-0.396,0.0111,-0.014
CACGCAT,0.134,0.00807,-0.363,-2.05,0.0257,-0.704,-0.0371,0.084,-0.0559
TGGATGC,0.0127,-0.0817,0.154,0.375,-0.0821,-0.249,0.152,0.0535,0.111
GGGATCA,0.0697,0.136,0.88,2,-0.0418,2.21,0.139,0.037,0.137
CCCGCCA,-0.238,-0.0231,-0.0892,-0.865,-0.0539,-0.479,-0.159,-0.0854,-0.043
GAGGTGA,-0.0779,-0.151,0.224,0.626,-0.085,0.793,-0.102,-0.0228,-0.0592
ACTCGGC,0.0193,-0.0135,-0.5,-0.569,-0.0408,-1.2,0.185,0.0157,-0.0787
TCTACTA,-0.0978,-0.147,-0.196,-2.54,0.0025,-0.32,-0.329,-0.00255,-0.0506
TGAAATC,0.0462,0.184,0.344,0.74,0.0204,0.519,0.128,0.104,0.181
CCTCTTC,0.0964,0.102,0.066,-0.393,-0.0965,-0.569,0.111,-0.0447,-0.144
TCATGTT,-3.69,-0.634,-3.62,-3.31,-0.179,-2.47,-3.65,-0.133,-2.27
GCCTTAC,0.0587,-0.0498,-0.051,-0.593,-0.0881,0.193,0.0125,-0.155,0.0211
GAAATCA,0.0311,0.123,0.274,-0.346,0.0272,0.87,-0.0639,0.13,0.0807
AGCCACC,0.00982,0.0224,0.164,0.295,-0.058,0.364,-0.571,-0.0187,0.00437
TGCCCGA,0.055,-0.0275,0.0181,-0.0175,0.0106,-0.616,0.0968,0.0542,0.0876
GTCACGC,-0.0462,0.065,0.178,0.507,-0.0318,0.555,-0.0105,-0.0358,0.0261
TGCTTTT,-2.76,-0.232,-0.0169,-1.91,-0.174,-0.561,-3.25,-0.0182,-0.104
CCTTCTC,-0.0479,-0.137,0.00545,-0.51,-0.0909,-0.731,-0.147,-0.065,-0.178
TCTGTCC,0.066,-0.0303,0.156,0.0186,0.0389,0.178,0.0261,0.0287,-0.0628
AATTGTG,0.023,-0.0638,-0.506,1.1,0.125,0.133,0.139,0.208,-0.0731
